# A collection of fitness landscapes (doi:10.1016/j.celrep.2020.107928)
# Whole data set: some 81,000 sequences, median “one-hybrid fitness for binding parS DNA” near -0.17, cut for the highest 2% near 0.51. This is one part of the list.
# B1: Caulobacter ParB omega fusion; a variant is named by its letters at X, in order, B8GW30 (parent)
# chain: MESVVVGEPGMSEGRRGLGRGLSALLGEVDAAPAQAPGEQLGGSREAPIEILQRNPDQPRRTFREEDLEDLSNSIREKGVLQPILVRPSPDTAGEYQIVAGERAWRAAQRAGLKTVPIMVRELDDLAVLEIGIIENVQRADLNVLEEALSYKVLMEKFERTQENIAQTIGKSXSHVANXMRLLXLPDEVQSYLVSGELTAXHARAIAAAADPVALAKQIIEGGLSVRETEALARKAPNLSAGKSKGGRPPRVKDTDTQALESDLSSVLGLDVSIDHRGSTGTLTITYATLEQLDDLCNRLTRGI
# Variants of: B1
# Assay: one-hybrid fitness for binding parS DNA (scaled: cognate 1, non-cognate 0); higher = stronger binding
# Conditions: with parS DNA site
# Outline: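 Pre- and post-selection plasmids were Illumina-sequenced, three replicate libraries were pooled, and any variant with under 10 reads was removed. The libraries were Caulobacter ParB with four specificity codons randomised, selected in E. coli USO through a HIS3 reporter whose site is 19 bp from the promoter. Cells grew 48 hours at 37°C on M9 without histidine, with 0.1 mM IPTG and 5 mM 3-AT. Fitness is the log change in variant-to-wild-type read ratio, rescaled against cognate and non-cognate.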
row,Variant,one-hybrid fitness for binding parS DNA
1,IDLM,≤ 0.2
2,KTAM,≤ 0.2
3,VQIN,≤ 0.2
4,QSKQ,≤ 0.2
5,LSLW,≤ 0.2
6,LVPR,≤ 0.2
7,PWTC,≤ 0.2
8,GGAG,≤ 0.2
9,RMQI,≤ 0.2
10,RPDF,≤ 0.2
11,STED,≤ 0.2
12,EASC,≤ 0.2
13,HADT,≤ 0.2
14,HGTS,≤ 0.2
15,TKKK,≤ 0.2
16,RVYM,0.314
17,VLFY,≤ 0.2
18,NLEH,≤ 0.2
19,HQNL,≤ 0.2
20,REMN,≤ 0.2
21,WTNM,≤ 0.2

row,Variant,one-hybrid fitness for binding parS DNA
1,KSVR,≤ 0.2
2,PTYR,≤ 0.2
3,CAAK,≤ 0.2
4,GQTY,≤ 0.2
5,KKGT,≤ 0.2
6,TLVS,≤ 0.2
7,LNRW,≤ 0.2
8,MVTA,≤ 0.2
9,GKCC,≤ 0.2
10,MTAP,≤ 0.2
11,NCNN,≤ 0.2
12,HEIT,≤ 0.2
13,LMLG,≤ 0.2
14,ATIK,≤ 0.2
15,HQNC,≤ 0.2
16,QIHK,≤ 0.2
17,RTEP,≤ 0.2
18,RLIF,≤ 0.2
19,DTTW,≤ 0.2
20,HNRF,≤ 0.2
21,ITTG,≤ 0.2

row,Variant,one-hybrid fitness for binding parS DNA
1,PLFS,≤ 0.2
2,KRDD,≤ 0.2
3,FANR,≤ 0.2
4,CSSA,≤ 0.2
5,PVQA,≤ 0.2
6,SNGW,≤ 0.2
7,CADS,≤ 0.2
8,YMPK,≤ 0.2
9,QTTY,≤ 0.2
10,HTTV,≤ 0.2
11,TAQK,≤ 0.2
12,CVFK,≤ 0.2
13,VDCR,≤ 0.2
14,PHCS,≤ 0.2
15,WNNK,≤ 0.2
16,DQTK,≤ 0.2
17,VPWT,≤ 0.2
18,KRWS,≤ 0.2
19,KDES,≤ 0.2
20,SWPN,≤ 0.2
21,IPRN,≤ 0.2

row,Variant,one-hybrid fitness for binding parS DNA
1,NCRL,≤ 0.2
2,WENF,≤ 0.2
3,ALFI,≤ 0.2
4,DILQ,≤ 0.2
5,KYAY,≤ 0.2
6,FAAY,≤ 0.2
7,VDVL,≤ 0.2
8,WATQ,≤ 0.2
9,RYAN,0.387
10,RSKC,0.943
11,LMAS,≤ 0.2
12,CQAR,≤ 0.2
13,HQTR,≤ 0.2
14,KRDN,≤ 0.2
15,GINT,≤ 0.2
16,DVTN,≤ 0.2
17,HFWF,≤ 0.2
18,TMYR,≤ 0.2
19,SIFG,≤ 0.2
20,YRNV,≤ 0.2
21,NTES,≤ 0.2
